In all, about 48,000 compounds went through this assay and about 120 (0.25%) were called active. Another 4% or so got no clear call; they are omitted. The call rests on the fitted dose curve; in most records, active means well fitted activation curve with a large enough effect; inconclusive means small, poorly fitted or top-dose-only effect, or another doubt; inactive means no such curve, though single readings can be large or run the other way. This is one part of the list.

A short description of the assay: Primary qHTS for Identification of Small Molecule Activators of Huntingtin-Antisense Promoter Activity. Further: nearly all actives have a fitted effect of over 55% in size. Particulars: HEK293 HTT-AS promoter firefly luciferase reporter, 24 h; series mostly up to 57.5 µM; activity change, positive = activation: at the top concentration. A digest of the protocol: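 HEK293 cells carrying firefly luciferase reporters were seeded at 2,500 per well in Opti-MEM and cultured for 24 h. They were then treated with compounds at up to 57.5 uM final for 24 h at 37 degrees C before Dual-Glo luminescence readout.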
Take `COCCCNC(=O)c1nn(-c2ccc(C)cc2)nc1CO`: the “activity change, positive = activation” value was inactive: -16.3%.
The figure for `COc1cccc(NC(=O)C(Cc2ccccc2)NS(=O)(=O)c2ccc3c(c2)c(=O)n(C)c(=O)n3C)c1` (centres undefined) is inactive: -14.3%; for `Cc1cccc(CNC(=O)Cn2ccc3cc(S(=O)(=O)N4CCCCCC4)ccc32)c1` it is inactive: -31.8%; for `CCCc1cc(=O)oc2cc(C)c3c(-c4ccccc4)coc3c12` it is inactive: -19.5%.
`O=C(CN1C(=O)CSc2ccc(S(=O)(=O)N3CCCC3)cc21)Nc1cccc(Cl)c1`: the “activity change, positive = activation” value is inactive: -29.5%.
For the compound `Cc1ccc(NC(=O)CC2Nc3ccccc3NC2=O)cc1C` (centres undefined), the “activity change, positive = activation” value was inactive: -11.9%.
Under `CCCNC(=O)CN1C(=O)CSc2ccc(S(=O)(=O)N3CCC(C)CC3)cc21` stands inactive: -18.7%; under `Cc1ccc(Nc2c(C(C)C)c(C)c(C#N)c3nc4ccccc4n23)cc1`, inactive: 8.5% [at 11.5 µM, percent change from vehicle, -100% = no light]; under `CCN(CC)C(=O)C1CCN(S(=O)(=O)c2c(C)noc2/C=C/c2cccc(OC)c2)CC1`, inactive: -21.4%.
`CCC(C)NC(=O)CCCc1nnc2n(CC(C)C)c(=O)c3sccc3n12` (centres undefined): the “activity change, positive = activation” value is inactive: -12.4%.
In the case of `CCOc1ccc(NC(=O)c2cc(S(=O)(=O)NC3CCCCCC3)ccc2F)cc1`, the “activity change, positive = activation” value was inactive: -24.6%.
Under `Cc1ccccc1-c1noc(-c2ccc(NCc3ccco3)c([N+](=O)[O-])c2)n1` stands inactive: 3.44%; under `COc1ccc2c(c1)CCc1c(C(=O)Nc3c(C)nn(Cc4ccccc4)c3C)noc1-2`, inactive: -30.9%.
Regarding `O=c1cc(-c2ccc(F)cc2)nc(SCc2nc(-c3ccc(Cl)cc3)no2)[nH]1`, the “activity change, positive = activation” value was inactive: -4.88%.
Under `CCOC(=O)c1c(C)[nH]c(C)c1S(=O)(=O)NCC(=O)NCc1cccc(C)c1` stands inactive: -7.3%; under `CCOC(=O)c1ccc(CN(Cc2ccc(Br)cc2)S(=O)(=O)c2cccc(Cl)c2C)cc1`, inactive: -21.2%; under `COc1cc(C(=O)NCC(c2ccc(Cl)cc2)N2CCOCC2)cc(OC)c1OC` (centres undefined), inactive: -9.57%.
On to `CCOC(=O)CC(NC(=O)Cn1nnc(-c2ccccc2F)n1)c1ccccc1Cl` (centres undefined), for which the “activity change, positive = activation” value is inactive: -24.7%.
The figure for `CCc1ccc(C2C(C(=O)Nc3ccccc3C)=C(C)Nc3nc(SCc4cccc(OC)c4)nn32)cc1` (centres undefined) is inactive: 5.2%; for `CC(=O)c1ccc(NC(=O)CSc2nc(=O)n(Cc3ccncc3)c3c2CCC3)cc1` it is inactive: -13.4%.
Under `CCS(=O)(=O)c1ncc(N(Cc2ccco2)Cc2ccccc2F)c(C(=O)Nc2cccc(Cl)c2)n1` stands inactive: -19%.
The figure for `Cc1ccc(N2CCN(C(=O)c3cn(C)c4ccc(S(=O)(=O)N(C)C)cc4c3=O)CC2C)cc1` (centres undefined) is inactive: -10.6%; for `Cc1ccccc1C(=O)N(Cc1sccc1C)C1CCS(=O)(=O)C1` (centres undefined) it is inactive: -17.1%; for `COc1ccc(CCNC(=O)c2ccc(Cn3c(=O)c4ccccc4n(CC(=O)C(C)(C)C)c3=O)cc2)cc1OC` it is inactive: -23.8%.
As for `COc1cc(NC(=O)CCn2nc(C)c(S(=O)(=O)N3CCCCC3)c2C)cc(OC)c1OC`, the “activity change, positive = activation” value was inactive: -7.24%.
In the case of `CC1CCCCN1CCCNC(=O)CN1C(=O)c2cccnc2Oc2ccccc21` (centres undefined), the “activity change, positive = activation” value was inactive: -11.9%.
In the case of `COc1ccccc1NC(=O)C1=C(C)Nc2c(C(=O)Nc3cccc(C)c3)cnn2C1c1ccccc1Cl` (centres undefined), the “activity change, positive = activation” value is inactive: -14.6%.
With `Cc1ccc(Cl)cc1NC(=O)CCCn1c(=O)c2cccn2c2cccnc21`, the “activity change, positive = activation” value was inactive: -4.18%.
The figure for `COc1ccc(-c2nc3n(n2)C(c2ccc(OC)c(OC)c2)C(C(=O)Nc2cccnc2)=C(C)N3)cc1` (centres undefined) is inactive: -33.6%.
With `COCCCNC(=O)c1ccc(Cn2c(=O)c3ccccc3n(Cc3c(C)cc(C)cc3C)c2=O)cc1`, the “activity change, positive = activation” value is inactive: -15.8%.
The figure for `C[C@@]12C[C@@]3(O)O[C@@H](O1)[C@]1(COC(=O)c4ccccc4)[C@@H]3C[C@@]12O[C@@H]1O[C@H](CO)[C@@H](O)[C@H](O)[C@@H]1O` is inactive: -8.44%.
The figure for `CCN1CCN(C(c2ccc(SC)cc2)c2c(O)cc(C)n(CCOC)c2=O)CC1` (centres undefined) is inactive: -18.9%; for `CCCCN(CC)C(=O)C1CCCN(c2ncnc3onc(C)c23)C1` (centres undefined) it is inactive: -26.4%; for `COc1ccc(CNC(=O)CS(=O)Cc2nc(-c3cccc(C)c3)oc2C)cc1` (centres undefined) it is inactive: -9.59%.
Take `COc1cc(CNCCSc2nnnn2C)cc(Cl)c1OCc1ccccc1`: the “activity change, positive = activation” value is inactive: -26.9%.
Under `Fc1ccccc1N1CCN(c2nccn3nc(-c4ccc(Br)cc4)cc23)CC1` stands inactive: -9.76%; under `Cc1ccc(S(=O)(=O)NCC2CCC(C(=O)NCCCOC(C)C)CC2)cc1` (centres undefined), inactive: -4.95%.
With `CCCCN(CC)CCNC(=O)c1cc2c(=O)n(CC)c3ccccc3c2s1`, the “activity change, positive = activation” value was inactive: 0.344%.
The figure for `CCCCNc1nc2ccccc2c2nc(-c3ccccc3)nn12` is inactive: -6.52%.
The figure for `Cc1ccccc1NC(=O)c1oc2c(c1C)-c1nn(Cc3cccc(Cl)c3)cc1CC2` is inactive: 0.898%.
Under `Cc1nc(SCCOc2ccccc2F)[nH]c(=O)c1Cc1ccccc1` stands inactive: -3.75%; under `CC(C)(Oc1ccc(Br)cc1)C(=O)Nc1cc(-c2nc3ccccc3[nH]2)ccc1Cl`, inactive: -16%.
`O=C(CN1N=C(c2ccc(Cl)cc2)CCC1=O)NCCc1ccccc1`: the “activity change, positive = activation” value was inactive: -6.29%.
The figure for `Cc1ccc(NC(=O)Cn2nc(Cc3ccncc3)c3ccccc3c2=O)c(Cl)c1` is inactive: -14.9%; for `CNCc1ccccc1` it is inactive: -2.76%.
The figure for `CCc1c(C)nc2nncn2c1NCc1ccc(Cl)cc1` is inactive: -43.6%.
Under `COc1ccccc1CNC(=O)CN1N=C(c2ccccc2)CCC1=O` stands inactive: -0.933%; under `CCOc1ccc(NC(=O)c2oc3ccccc3c2NC(=O)c2ccc(OC)cc2OC)cc1`, inactive: 0.424%.
With `N[C@@H](Cc1c[nH]c2ccc(O)cc12)C(=O)O`, the activity change, positive = activation result is “inactive”.
Turning to `Cc1ccc(C)c(NC(=O)CSc2c(C)cnc3c2c(=O)n(C)c(=O)n3C)c1`, the “activity change, positive = activation” value was inactive: -4.25%.
Take `O=C(Cn1cnc2nc3c(cc2c1=O)CCCC3)N1CCN(c2cccc(C(F)(F)F)c2)CC1`: the “activity change, positive = activation” value was inactive: -2.58%.
Under `CCOc1ccc(OCC)c(NS(=O)(=O)c2c(C)[nH]c(=O)[nH]c2=O)c1` stands inactive: -7.85%.
For `CN1C[C@@H]2C[C@H]1CN2c1cc2c(cc1F)c(=O)c(C(=O)O)cn2C1CC1`, the “activity change, positive = activation” value is inactive: -11.4% [at 25.1 µM, percent change from vehicle, -100% = no light].
In the case of `CCC(=O)N1c2ccccc2CC1C(=O)N1CCN(c2cccc(OC)c2)CC1` (centres undefined), the “activity change, positive = activation” value was inactive: -17.5%.
For `CCc1ccc(NC(=O)Cn2ccn(-c3ccc(OC)cc3)c(=O)c2=O)cc1`, the “activity change, positive = activation” value is inactive: -17.9%.
The figure for `Cc1ccc(N(C)C(=O)CC(C)S(=O)(=O)c2ccc3c(c2)NC(=O)CO3)cc1` (centres undefined) is inactive: -20%; for `COc1ccc(CCNC(=O)c2csc3c2CCCCC3)c(OC)c1` it is inactive: -32.3%.
As for `COc1ccc(Cn2c(C(=O)O)c(CNC3CCCC3)c3ccc(C)cc32)cc1`, the “activity change, positive = activation” value was inactive: -12.9%.
As for `COC(=O)c1cc2oc(C)cc2n1Cc1cc(C)ccc1C`, the “activity change, positive = activation” value was inactive: 13.1%.
The figure for `Cc1cccc(NC(=O)CC2Nc3cccc4cccc(c34)NC2=O)c1` (centres undefined) is inactive: -19.9%.
Under `CCOc1ccc(NC(=O)CSc2nc(-c3cccc(Cl)c3)nc3c2Cc2c(CO)cnc(C)c2O3)cc1` stands inactive: -15.4%.
For the compound `Cc1ccc(C)c(NC(=O)Cn2ncc3c([nH]c4ccccc43)c2=O)c1`, the “activity change, positive = activation” value was inactive: -15.2%.
For the compound `Cc1cccc(NC(=O)CSc2nc(-c3cccc(C)c3)nc3c2Cc2c(CO)cnc(C)c2O3)c1`, the “activity change, positive = activation” value is inactive: -3.07%.
Turning to `CC1(C)Cc2c(c(N3CCOCC3)nc3sc(C(=O)Nc4ccc(Cl)cc4)c(N)c23)CO1`, the “activity change, positive = activation” value is inactive: -7.83%.
Under `CCc1nc2ccc(C(=O)NCc3ccc(OC)c(OC)c3)cc2nc1CC` stands inactive: 17.2%; under `Cc1ccc2c(CC(=O)Nc3cccc(C(F)(F)F)c3)coc2c1`, inactive: -20.4%.
Under `Cc1ccc2c(c1)-c1onc(C(=O)N(C)c3cccc(C(F)(F)F)c3)c1CO2` stands inactive: -25.1%.
The figure for `Cc1ccccc1CNC(=O)Cn1c(C)c2cnn(-c3ccccc3)c(=O)c2c1C` is inactive: -13.5%; for `CCOC(=O)c1sc(N2C(=O)c3oc4ccccc4c(=O)c3C2c2ccc(C(C)(C)C)cc2)nc1C` (centres undefined) it is inactive: 0.941% [at 11.5 µM, percent change from vehicle, -100% = no light]; for `CCCCOc1ccc(C(=O)Nc2cc(-c3ccc(C)cc3)no2)cc1` it is inactive: 24.7%.
Turning to `Cc1cccn2c3c(c(=O)nc12)C(c1cccc(F)c1)CC(=O)N3` (centres undefined), the “activity change, positive = activation” value is inactive: -8.94%.
The figure for `Cc1ccc(CNC(=O)c2ccc3c(c2)CCN3S(=O)(=O)c2ccccc2)cc1` is inactive: -20.9%; for `CC(C)C(=O)Nc1nnc(S(=O)(=O)N(C)Cc2ccc(F)cc2)s1` it is inactive: -10.9%; for `CCOc1ccccc1NC(=O)C1CCCN(c2ncnc3onc(-c4ccc(F)cc4)c23)C1` (centres undefined) it is inactive: -19.7%.
Regarding `COc1ccc(NC(=O)C2CCN(S(=O)(=O)c3cn(C)cn3)CC2)cc1Cl`, the “activity change, positive = activation” value is inactive: -4.71%.
Regarding `CC(=O)OCc1cnc(C)c2oc(=O)c(C(=O)Nc3cc(F)ccc3C)cc12`, the “activity change, positive = activation” value is inactive: -7.69%.
Under `O=C(c1ccc([N+](=O)[O-])cc1)N(Cc1ccco1)c1ccccn1` stands inactive: -2.73%.
Turning to `NC(=O)CN1C(=O)C2(SCC(=O)N2c2cccc(F)c2)c2ccccc21` (centres undefined), the “activity change, positive = activation” value is inactive: -2.47%.
The figure for `Cc1cc(C)cc(NC(=O)c2cn3c4c(ccc(Cl)c4c2=O)OC(C)C3)c1` (centres undefined) is inactive: -11.2%; for `CCCCn1c(=O)c2oc3ccccc3c2n(Cc2ccc(OC)cc2)c1=O` it is inactive: -17.7%; for `COc1ccccc1CNC(=O)c1ccc(-c2nc(CS(=O)c3ccc(C)cc3)c(C)o2)cc1` (centres undefined) it is inactive: -34.7%.
Regarding `COc1ccc(S(=O)(=O)Nc2ccc3c(c2)sc(=O)n3C)cc1Cl`, the “activity change, positive = activation” value was inactive: -38.1%.
For the compound `CC(C)n1nc(-c2ccc3oc(N)nc3c2)c2c(N)ncnc21`, the “activity change, positive = activation” value was inactive: -38.1%.
As for `Cc1cc2c(cc1S(=O)(=O)CCC(=O)N(C)C1CCCCC1)OCC(=O)N2`, the “activity change, positive = activation” value is inactive: -10.3%.
In the case of `COCCN(Cc1ccco1)C(=O)Cn1ncc2c([nH]c3ccccc32)c1=O`, the “activity change, positive = activation” value is inactive: -16.1%.
In the case of `Cc1ccc(-c2nnn3c2nc(NCCc2ccccc2)c2ccccc23)cc1`, the “activity change, positive = activation” value was inactive: 10.1%.
The figure for `CN(c1ncnc2c1c(-c1ccccc1)cn2-c1cccc(Cl)c1)C1CCCCC1` is inactive: -8.82%; for `CCc1ccc(CN(Cc2ccco2)C(=O)COc2ccccc2Cl)cc1` it is inactive: -38.1%.
The figure for `Cc1cccc(-n2c(=O)c3c(c4cc(C)ccc4n3C)n(C)c2=O)c1` is inactive: -15.7%.
As to `Cc1ccc(C)c(C(=O)CSc2nc(-c3ccccc3)nc3c2CCCC3)c1`, the “activity change, positive = activation” value is inactive: 1.33%.
`OCc1ccc(Cl)cc1Cl`: the “activity change, positive = activation” value is inactive: -5.21%.
Under `Cc1c(Cl)cccc1NC(=O)N1CCC(CN2CCOCC2)CC1` stands inactive: 4.83%.
With `Cc1nc2cc(-c3ccc(Cl)cc3)nn2c(C)c1CCC(=O)N1CCN(c2ccccc2)CC1`, the “activity change, positive = activation” value is inactive: -75.3%.
The figure for `CCCCCCCCCCCCCCCC(=O)OC[C@@H](NC(=O)C(Cl)Cl)[C@H](O)c1ccc([N+](=O)[O-])cc1` is inactive: -15.1%.

The values above are taken from PubChem BioAssay AID1508624 (National Center for Advancing Translational Sciences (NCATS), 2021).
